Results taken from the RNAGym collection of RNA variant scans (doi:10.1073/pnas.2313332121).
Variants at the background level are over-represented here.

B1: TPR 5TU (parent)
chain: GGAUCUUCUCGAUCUAACAAAAAAGACAAAUCUGCCACAAAGCUUGAGAGCAUCUUCGGAUGCAGAGGCGGCAGCCUUCGGUGGCGCGAUAGCGCCAACGUUCUCAACUAUGACACGCAAAACGCGUGCUCCGUUGAAUGGAGUUUAUCAUG

Variants of: B1
Test: polymerase ribozyme fitness, log enrichment relative to wild type (log ratio); higher = more active; in vitro selection for triplet polymerase activity
How it was run: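 Libraries of mutants in each subunit of a heterodimeric triplet polymerase ribozyme were generated by PCR and transcribed. In triplicate, each went through one in vitro selection round: annealing with biotinylated primer, partner subunit and triplets; frozen incubation at −7 °C; gel excision of extended constructs; streptavidin-bead capture; RT-PCR. Fitness, taken from Illumina sequencing of input and output libraries, is the logarithm of a genotype's enrichment over wild-type enrichment, averaged across replicates with inverse-variance weights. The logarithm is base 2, and genotypes needed ≥10 input reads and ≥1 read per output to be kept.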

U44G G50C C99U U135C G152C and U44G G81C C96U C108G cannot be ordered by “polymerase ribozyme fitness (log ratio)” value: ≤ -4.2 for the first, ≤ -4.2 for the second.

U45A A47C G141U and U45C G140C cannot be ordered by “polymerase ribozyme fitness (log ratio)” value: ≤ -4.2 for the first, ≤ -4.2 for the second.

U44G G50C G92A and U45A G50A A98U A106U U111G cannot be ordered by “polymerase ribozyme fitness (log ratio)” value: ≤ -4.2 for the first, ≤ -4.2 for the second.

U45A G50A C93U A115U G143C and U45A A52G A66C C85G C132A cannot be ordered by “polymerase ribozyme fitness (log ratio)” value: ≤ -4.2 for the first, ≤ -4.2 for the second.

U45G C51A U53A A73U C85A and U45A A64U G67C G74A G83A A120G cannot be ordered by “polymerase ribozyme fitness (log ratio)” value: ≤ -4.2 for the first, ≤ -4.2 for the second.

U45A C96U G140A and G46A A49G G86A G88A C116U U135C cannot be ordered by “polymerase ribozyme fitness (log ratio)” value: ≤ -4.2 for the first, ≤ -4.2 for the second.

U45G C93U C95G A120G and U45A A52C G65U C69U C85U U109A A121G U145G cannot be ordered by “polymerase ribozyme fitness (log ratio)” value: ≤ -4.2 for the first, ≤ -4.2 for the second.

U45G A52U U55A A73U C85U G117A C149A and U45G A60C C69A C75U C87G A89C A97U A119G G136C cannot be ordered by “polymerase ribozyme fitness (log ratio)” value: ≤ -4.2 for the first, ≤ -4.2 for the second.

U45A A73C G141C G143C and G46A A47U A52G C54A G100C U139A U144G cannot be ordered by “polymerase ribozyme fitness (log ratio)” value: ≤ -4.2 for the first, ≤ -4.2 for the second.

U44G G88A A106G G117C G141C U144A and U44G A52C G71C U77G U78G cannot be ordered by “polymerase ribozyme fitness (log ratio)” value: ≤ -4.2 for the first, ≤ -4.2 for the second.

U44G A52G A91U U148C and U45G G84C A89G C96U G117C U144A A147C cannot be ordered by “polymerase ribozyme fitness (log ratio)” value: ≤ -4.2 for the first, ≤ -4.2 for the second.

U44G U61G and U44G U55A U90G G100U G128A cannot be ordered by “polymerase ribozyme fitness (log ratio)” value: ≤ -4.2 for the first, ≤ -4.2 for the second.

U44G G68C U90G A142U and U45G G50A C87A C103U G124A cannot be ordered by “polymerase ribozyme fitness (log ratio)” value: ≤ -4.2 for the first, ≤ -4.2 for the second.

First: U45G C114U A119U
Second: G46A A52G C99G A138C C149U
The “polymerase ribozyme fitness (log ratio)” value of the first is higher: -2.4 for the first, ≤ -4.2 for the second.

U45A U61G C116U C123A and U45A U53A G80U C85G C105A A106C cannot be ordered by “polymerase ribozyme fitness (log ratio)” value: ≤ -4.2 for the first, ≤ -4.2 for the second.

U44G G81C A89U A119U and U44G C51U A73G G86A A89C C96U A106G cannot be ordered by “polymerase ribozyme fitness (log ratio)” value: ≤ -4.2 for the first, ≤ -4.2 for the second.

First: U45A G94A
Second: U45G A64G G74C G88C A98G G136A A142C
The “polymerase ribozyme fitness (log ratio)” value of the first is higher: -2.81 for the first, ≤ -4.2 for the second.

U45A A47G G50A A64G G136U and U44G U53G C87U U135A cannot be ordered by “polymerase ribozyme fitness (log ratio)” value: ≤ -4.2 for the first, ≤ -4.2 for the second.

U45G C54G and U44G U56A G84U C129A cannot be ordered by “polymerase ribozyme fitness (log ratio)” value: ≤ -4.2 for the first, ≤ -4.2 for the second.

U45A G67A C69G C99U and U45C G46U A73G C87U A110G G133U A138G cannot be ordered by “polymerase ribozyme fitness (log ratio)” value: ≤ -4.2 for the first, ≤ -4.2 for the second.

U45A G59A G83A C149A and U45G U109G cannot be ordered by “polymerase ribozyme fitness (log ratio)” value: ≤ -4.2 for the first, ≤ -4.2 for the second.

U45G C85G C93U and U45G U77G C85G cannot be ordered by “polymerase ribozyme fitness (log ratio)” value: ≤ -4.2 for the first, ≤ -4.2 for the second.

Going from U45A C57U C93G C131G G133C to G46A A52C U61G, the “polymerase ribozyme fitness (log ratio)” value rises from ≤ -4.2 to -0.687.

First: U45G G74C G84A C99U A107C C125G C129A
Second: U45A C93A G141A
The “polymerase ribozyme fitness (log ratio)” value of the first is lower: ≤ -4.2 for the first, -4.05 for the second.

U45A G46U G88U G92U A97C C118U and U45A A73U G80C C95U C123U C129U cannot be ordered by “polymerase ribozyme fitness (log ratio)” value: ≤ -4.2 for the first, ≤ -4.2 for the second.

G46A A47U A73U G86C G88A A106G and U45A G80A G88A cannot be ordered by “polymerase ribozyme fitness (log ratio)” value: ≤ -4.2 for the first, ≤ -4.2 for the second.

U45A A47C U56A A115U G140C and G46A A49U G62U G84C A97G U109G cannot be ordered by “polymerase ribozyme fitness (log ratio)” value: ≤ -4.2 for the first, ≤ -4.2 for the second.

Going from U45G A137C to U45A A60U U77G C79U C99G U148G, the “polymerase ribozyme fitness (log ratio)” value falls from -4.14 to ≤ -4.2.

U45C C63G A66G C132G and U45G G94A U104G C116A cannot be ordered by “polymerase ribozyme fitness (log ratio)” value: ≤ -4.2 for the first, ≤ -4.2 for the second.

U44G U61A G141C and U45A U55A C57G C96U G141C cannot be ordered by “polymerase ribozyme fitness (log ratio)” value: ≤ -4.2 for the first, ≤ -4.2 for the second.

U45A U56A A73G C93G C105G A115G C123U and U45A G83C C105U C131G cannot be ordered by “polymerase ribozyme fitness (log ratio)” value: ≤ -4.2 for the first, ≤ -4.2 for the second.

U45G A66G C76G C93G A98C A110G and U44G G84U C114G C118A U134G cannot be ordered by “polymerase ribozyme fitness (log ratio)” value: ≤ -4.2 for the first, ≤ -4.2 for the second.

U45G A66G and U45A G50A C57G G84C C96U G143C U144A U145C cannot be ordered by “polymerase ribozyme fitness (log ratio)” value: ≤ -4.2 for the first, ≤ -4.2 for the second.

U45A G80C A106C A115C U127C and U45A A52G U56G C57G G94C U102G cannot be ordered by “polymerase ribozyme fitness (log ratio)” value: ≤ -4.2 for the first, ≤ -4.2 for the second.

U45A A47U U77G C114G A122U and U44G G81A C87A G124C cannot be ordered by “polymerase ribozyme fitness (log ratio)” value: ≤ -4.2 for the first, ≤ -4.2 for the second.

U45A G58A G83A U148C and G46A A73G C87G A122U cannot be ordered by “polymerase ribozyme fitness (log ratio)” value: ≤ -4.2 for the first, ≤ -4.2 for the second.

First: U45A G67C C85A C95G
Second: U45A G83C
The “polymerase ribozyme fitness (log ratio)” value of the first is lower: ≤ -4.2 for the first, -3.51 for the second.

U45G C87G A91U C99G C105U A137G and U45A G92U A107U cannot be ordered by “polymerase ribozyme fitness (log ratio)” value: ≤ -4.2 for the first, ≤ -4.2 for the second.

U44G G88U G128U G133A A150U and U45A U77G G84U C118U cannot be ordered by “polymerase ribozyme fitness (log ratio)” value: ≤ -4.2 for the first, ≤ -4.2 for the second.

U45A C51U G92U C114U A142C and U44G G46A G92A A122U A147G cannot be ordered by “polymerase ribozyme fitness (log ratio)” value: ≤ -4.2 for the first, ≤ -4.2 for the second.

U45A G50C U53A C57A U101G U102G G126A C129G U134G G136U G140U and U45C G71A A107C C108U cannot be ordered by “polymerase ribozyme fitness (log ratio)” value: ≤ -4.2 for the first, ≤ -4.2 for the second.

With U45G C129G A142G U148C the “polymerase ribozyme fitness (log ratio)” value was ≤ -4.2.
